Data reported in PubChem BioAssay AID1345082 (National Center for Advancing Translational Sciences (NCATS), 2018).
About 4,000 (4.3%) of roughly 94,000 compounds were called active. The inconclusive results got no clear call from the source; some entries with a clear call stand among them for comparison. Calls come from the whole dose curve; as a rule, active = well fitted inhibition curve with a large enough effect; inconclusive = small, poorly fitted or top-dose-only effect; inactive = no such curve, though single readings can be large or run the other way. A potency beside an inconclusive call is a rough fit, not a confirmed value.

Experiment: Cytotoxic Profiling in NIH 3T3 Cell Line of Diverse Libraries Using Quantitative High-Throughput Screening; note: nearly all actives have a fitted effect of over 55% in size
Settings: NIH 3T3 viability, CellTiter-Glo ATP luminescence, 48-72 h; series mostly up to 96.7 µM
Summary of the method: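 First NIH 3T3 cells are plated at 400 cells/well; next compound is pinned in; then plates incubate 48 or 72 hr at 37 °C; finally CellTiter-Glo is added and luminescence read after 10 min.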
Potency is the fitted concentration of half-maximal effect; tags give direction and shape of the fitted curve.

Row | SMILES | Potency
1 | CCNC(=O)CN1CN(c2ccccc2)C2(CCN(C(=O)NC34CC5CC(CC(C5)C3)C4)CC2)C1=O | inconclusive: 50.1 µM [inhibitor, partial curve, poor fit]
2 | CC(C)(C)C(=O)N1CCC(N2CCCC(C(=O)NCc3ccccc3)C2)CC1 (centres undefined) | inactive
3 | CC(=O)NCC(=O)N1CCCC(C(=O)Nc2cccc(-c3ccc(F)cc3)c2)C1 (centres undefined) | inconclusive: 56.2 µM [inhibitor, partial curve, poor fit]
4 | Cc1ccccc1NC(=O)CC[C@H]1NC(=O)c2ccccc2NC1=O | inactive
5 | CN1CC(=O)N(C2CCCCC2)Cc2c1ncnc2N1CCN(c2ncccn2)CC1 | active: 44.7 µM
6 | COC(=O)[C@@H]1Cc2ncn(Cc3ccc(Cl)cc3)c2CN1C(=O)c1ccccc1 | inactive
7 | COC[C@@H]1CN(S(=O)(=O)c2ccccc2)C[C@H]1c1ccncc1 | inactive
8 | Cc1noc(C)c1-c1cc2cc(CNC3CC3)oc2c(NC2CCN(C)CC2)n1 | inconclusive: 50.1 µM [inhibitor, partial curve, poor fit]
9 | Cc1ccc(NS(=O)(=O)c2ccccc2)c(=O)n1CC(=O)NC(C)c1ccccc1 (centres undefined) | inactive
10 | O=C(N1CC(Oc2ccc(-c3nc(-c4ccccc4)no3)cc2)C1)C1(c2ccccc2)CC1 | inconclusive: 44.7 µM [inhibitor, partial curve, poor fit]
11 | O=C(NCc1ccc(F)c(Cl)c1)c1cc2n(n1)CC(c1ccc(Cl)cc1)OC2 (centres undefined) | inconclusive: 17.8 µM [inhibitor, full curve]
12 | Cc1ccc(Nc2ccnc(N3CCCC(C(=O)N4CCOCC4)C3)n2)cc1 (centres undefined) | inconclusive: 39.8 µM [inhibitor, partial curve, poor fit]
13 | Cn1ncc2c(C(=O)NCc3cccc(Cl)c3)cc(-c3ccsc3)nc21 | active: 15.8 µM
14 | O=C(NC1CCCCC1)N1CCC(Oc2ccc(-c3noc(C4CC4)n3)cc2)C1 (centres undefined) | inconclusive: 44.7 µM [inhibitor, partial curve, poor fit]
15 | CCOc1cccc(CNC(=O)c2cc3c(N4CCCC4)nc(C)cn3n2)c1 | inconclusive: 50.1 µM [inhibitor, partial curve, poor fit]
16 | COc1ccc(CN2CC3(CCN(C(=O)Nc4cccc(C(F)(F)F)c4)CC3)C2=O)cc1 | inconclusive: 50.1 µM [inhibitor, partial curve, poor fit]
17 | O=C1CC2(CCN([S+](=O)([O-])c3ccccc3)CC2)Oc2ccccc2N1 | inconclusive: 44.7 µM [inhibitor, partial curve, poor fit]
18 | Cc1ccccc1-c1nn(-c2ccc(F)cc2F)cc1CN1CCC[C@@H]1C(N)=O | inconclusive: 50.1 µM [inhibitor, partial curve, poor fit]
19 | O=C(Nc1cccc(Cl)c1)C1CCc2nnc(C3CC3)n21 (centres undefined) | inactive
20 | CCOc1ccc(C(=O)N2CCN(c3cc(-c4ccccc4)[nH]n3)CC2)cc1OCC | inconclusive: 35.5 µM [inhibitor, partial curve]
21 | Cc1cnc(CC2CCN(C(=O)CCc3nc4ccccc4s3)CC2)n1CC1CC1 | inconclusive: 50.1 µM [inhibitor, partial curve, poor fit]
22 | CCOc1ccc(C(=O)NC2CCN(c3cc(-c4ccc(OC)cc4)[nH]n3)C2)cc1 (centres undefined) | inconclusive: 31.6 µM [inhibitor, full curve, poor fit]

Row | SMILES | Potency
23 | COCCNC(=O)c1ccc(CC2CCN(C(=O)Cc3ccccc3)CC2)cc1 | inactive
24 | COc1cccc(-c2ncc3c(n2)OCCN(Cc2ccccc2)C3=O)c1 | inconclusive: 89.1 µM [inhibitor, partial curve, poor fit]
25 | O=C(NC[C@H]1Cn2c(-c3ccccc3)cnc2CO1)C1CCCC1 | inactive
26 | CCc1cccc(NC(=O)CN2C(=O)NC(c3ccc(C)cc3)C3=C2COC3=O)c1 (centres undefined) | inconclusive: 39.8 µM [inhibitor, partial curve, poor fit]
27 | O=C(NCC1CC1)c1cccc(OC2CN(Cc3ccc(F)cc3F)C2)c1 | inconclusive: 50.1 µM [inhibitor, partial curve, poor fit]
28 | CN1C(=O)CC(C(=O)O)C12CCN(C(=O)Nc1ccccc1)CC2 (centres undefined) | inactive
29 | CCc1cn(C[C@H](NCC(C)(C)C)C(=O)O)c(=O)[nH]c1=O | inactive
30 | O=C(NC1CCN(Cc2cccc(-c3ccc(F)c(F)c3)c2)CC1)c1ccccc1F | inconclusive: 50.1 µM [inhibitor, partial curve, poor fit]
31 | Cc1cc(F)cc(CN2CCOc3cc([S+](N)(=O)[O-])ccc3C2)c1 | inconclusive: 89.1 µM [inhibitor, partial curve, poor fit]
32 | COc1ccc(-c2nc(CC3CCNC3)no2)cc1 (centres undefined) | inconclusive: 50.1 µM [inhibitor, partial curve, poor fit]
33 | COCc1nc2nc(-c3ccccc3)c(Nc3ccc(F)c(OC)c3)cc2n1C | inconclusive: 89.1 µM [inhibitor, partial curve]
34 | O=C(Nc1ccc([C@@H](O)[C@H]2COCC(=O)N2Cc2cccnc2)cc1)c1ccccc1 | inactive
35 | CCN1c2cc(C(=O)Nc3ccc(C(N)=O)cc3)ccc2C(=O)N2CCCCCC21 (centres undefined) | inconclusive: 44.7 µM [inhibitor, partial curve, poor fit]
36 | COc1ccc(-c2cc(N3CCCN(C(=O)c4ccc(OC)cc4C)CC3)n[nH]2)cc1 | inconclusive: 39.8 µM [inhibitor, partial curve, poor fit]
37 | c1ccc(CCc2nc3nccc(-c4ccncc4)n3n2)cc1 | inconclusive: 56.2 µM [inhibitor, partial curve, poor fit]
38 | CC(C)C(=O)N1CCCCCCNC(=O)[C@@H]2CCCC[C@@H]21 | inactive
39 | Cc1ccc(-n2c(C3CCN(C(=O)c4n[nH]c5ccccc45)CC3)n[nH]c2=O)cc1 | inconclusive: 11.2 µM [inhibitor, full curve, poor fit]
40 | CC(C)c1noc(CCn2ccnc2-c2cnc[nH]2)n1 | inactive
41 | COc1ncccc1-c1cc(C(=O)N2CCC(OC)CC2)c2c(c1)ncn2C | inconclusive: 56.2 µM [inhibitor, partial curve, poor fit]
42 | COCC(=O)N1CCCC1C(=O)N1CCC(c2ccccc2)CC1 (centres undefined) | inactive
43 | O=C(NC1CC1)c1cn2cc(-c3cccc(C(F)(F)F)c3)sc2n1 | inconclusive: 17.8 µM [inhibitor, full curve]
44 | COCC1CCN(C(=O)CC(c2ccccc2)c2ccccc2C)CC1 (centres undefined) | inactive

Row | SMILES | Potency
45 | CC1(C(=O)NCc2ccncc2)CCCc2cnc(Nc3ccccc3F)nc21 (centres undefined) | inconclusive: 63.1 µM [inhibitor, partial curve, poor fit]
46 | COc1ccc(-n2nc(C3CCN(C(=O)c4ccc(C(F)(F)F)cc4)CC3)[nH]c2=O)cc1 | inconclusive: 22.4 µM [inhibitor, partial curve, poor fit]
47 | O=C(C1CCCN1Cc1ccc(-c2cncnc2)cc1)N1CCC(Cc2ccccc2)CC1 (centres undefined) | inconclusive: 50.1 µM [inhibitor, partial curve, poor fit]
48 | CCC1Oc2ccc(NC(=O)COc3ccccc3)cc2CN(Cc2cccc(OC)c2)C1=O (centres undefined) | inconclusive: 39.8 µM [inhibitor, partial curve]
49 | COc1ccccc1CN(Cc1ccccc1C)C(=O)[C@H]1CCC[C@H](O)C1 | inactive
50 | O=C(NC1CC1)[C@@H]1CCCN1c1nccc(Nc2ccccc2Cl)n1 | inactive
51 | O=C1NCCCCCCN(C(=O)Nc2ccccc2)[C@H]2C[C@H](C(=O)N3CCc4ccccc4C3)C[C@@H]12 | inactive
52 | CN(Cc1cccn1C)[S+](=O)([O-])c1cccc(C(F)(F)F)c1 | inactive
53 | CCOC(=O)[C@@H]1CN(C(=O)C2CCCCC2)[C@H]2c3ccc(OC)cc3O[C@@H]12 | inconclusive: 44.7 µM [inhibitor, partial curve, poor fit]
54 | O=C(c1ccc(Cl)cc1)N1CC2(CCN(CC3CC3)C2)Cc2ccccc21 (centres undefined) | inconclusive: 44.7 µM [inhibitor, partial curve, poor fit]
55 | Cc1noc(-c2ccc3c(c2)OCO3)c1C(=O)NCCSCc1ccccc1 | inconclusive: 50.1 µM [inhibitor, partial curve, poor fit]
56 | CN(C)Cc1cn2c(=O)n(C)cc(-c3ccccc3Oc3ccccc3)c2n1 | inconclusive: 89.1 µM [inhibitor, partial curve]
57 | Cc1cccc(-c2cccc(CN3CCC(NC(=O)Nc4ccc(Cl)cc4)CC3)c2)c1 | active: 11.2 µM
58 | O=C(Cn1c(=O)oc2ccccc21)N1CCC2(CC1)NCCc1c2[nH]c2ccccc12 | inconclusive: 50.1 µM [inhibitor, partial curve, poor fit]
59 | CC(C)(C)c1ccc(CN2CC3(COCC2=O)CN(c2ccccc2)C3)cc1 | active: 79.4 µM
60 | COc1ccc(-c2nc(C)nc3c2CCN(Cc2cncs2)CC3)cc1 | inactive
61 | Cc1nc(CCN(C)C(=O)C2C3C(=O)N(C4CCCCCC4)C[C@@]34C=C[C@@H]2O4)no1 (some centres undefined) | inactive
62 | CCc1nccn1CC(=O)NC(C)c1cnn(-c2ccccc2C)c1C (centres undefined) | inconclusive: 17.8 µM [inhibitor, full curve, poor fit]
63 | COc1cccc(-c2ccc(C(=O)N3CCC(N[S+](=O)([O-])c4ccc(C)cc4)CC3)cc2)c1 | inconclusive: 17.8 µM [inhibitor, full curve, poor fit]
64 | Cc1nn(-c2ccccc2)c2c1C(C(C)C)N(C1CCN(C(=O)c3ccc(Cl)nc3)C1)C2=O (centres undefined) | inactive
